# In publication PMC4336329 (PLoS ONE, 2015):
# In all, about 310,000 compounds went through this assay and about 2,200 (0.71%) showed an effect of 50% or more. The effect is printed as a negative number. The list shows a part of the results.
# Target: human ether-à-go-go-related gene (hERG) potassium channel (human, UniProt Q12809)
# Test: primary screen, population patch clamp on CHO cells stably expressing hERG
# Chain of human ether-à-go-go-related gene (hERG) potassium channel (Q12809 whole entry, looked up): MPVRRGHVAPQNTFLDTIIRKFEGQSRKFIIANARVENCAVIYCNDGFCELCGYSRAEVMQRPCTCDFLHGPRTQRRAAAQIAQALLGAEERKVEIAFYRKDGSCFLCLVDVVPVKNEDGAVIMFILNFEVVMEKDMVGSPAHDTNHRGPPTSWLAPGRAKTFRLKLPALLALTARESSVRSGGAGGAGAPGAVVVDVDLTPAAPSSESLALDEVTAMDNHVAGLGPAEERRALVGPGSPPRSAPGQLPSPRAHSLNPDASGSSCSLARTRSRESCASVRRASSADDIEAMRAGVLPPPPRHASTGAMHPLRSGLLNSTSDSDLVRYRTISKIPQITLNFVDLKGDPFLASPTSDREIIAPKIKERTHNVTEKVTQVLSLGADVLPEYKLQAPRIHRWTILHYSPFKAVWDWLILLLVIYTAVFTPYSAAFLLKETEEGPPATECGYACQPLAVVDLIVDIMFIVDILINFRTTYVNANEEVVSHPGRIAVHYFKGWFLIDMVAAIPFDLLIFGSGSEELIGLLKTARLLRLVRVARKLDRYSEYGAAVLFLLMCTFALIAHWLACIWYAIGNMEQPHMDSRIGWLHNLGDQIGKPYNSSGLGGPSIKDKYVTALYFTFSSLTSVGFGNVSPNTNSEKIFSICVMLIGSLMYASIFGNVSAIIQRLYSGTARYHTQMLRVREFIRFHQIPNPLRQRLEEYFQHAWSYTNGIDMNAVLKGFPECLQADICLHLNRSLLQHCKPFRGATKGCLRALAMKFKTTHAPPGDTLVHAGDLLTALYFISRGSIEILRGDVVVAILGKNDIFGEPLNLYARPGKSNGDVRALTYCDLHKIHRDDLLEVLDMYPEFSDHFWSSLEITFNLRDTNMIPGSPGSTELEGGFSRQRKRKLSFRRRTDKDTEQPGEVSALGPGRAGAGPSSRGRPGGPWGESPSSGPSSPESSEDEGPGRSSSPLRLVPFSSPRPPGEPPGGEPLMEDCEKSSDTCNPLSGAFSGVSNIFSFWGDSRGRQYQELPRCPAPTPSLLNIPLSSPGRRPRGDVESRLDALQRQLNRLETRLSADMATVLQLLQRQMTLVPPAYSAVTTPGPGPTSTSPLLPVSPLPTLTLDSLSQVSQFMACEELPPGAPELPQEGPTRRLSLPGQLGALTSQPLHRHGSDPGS
row,Structure (SMILES),"hERG current change (%, negative = inhibition) at 1uM [%]"
1,CN1CCC(OC(=O)c2ccccc2Cl)CC1.Cl,5.67
2,CN(CC(=O)Nc1ccccc1Cl)C(=O)c1cc(=O)[nH]c2ccccc12,7.33
3,COC(C(=O)Nc1ccc(F)cc1)c1ccccc1 (stereo not shown),0.755
4,CCCCC(=O)Nc1ccccc1C(C)C,7.23
5,CCn1c(SCC(=O)NNC(=O)c2ccc(C)cc2)nnc1-c1ccco1,14.8
6,CNC(=O)/C=C1\NC(C)(C)Cc2c1ccc1ccccc21,0.94
7,CCCN(CC(=O)Nc1ccccc1C)C(=O)c1cc(=O)[nH]c2ccccc12,6.64
8,COC1=CC(=O)O[C@@H](/C=C/c2ccccc2)C1,5.84
9,CC(C)(C)c1ccc(NNC(=O)C2CCC2)cc1,15.5
10,COCC(=O)N1CCCC(C(=O)c2ccc(C(F)(F)F)cc2)C1 (stereo not shown),12.5
11,c1ccc(-c2nnsc2Sc2ccccn2)cc1,6.49
12,CCOc1ccc(Cl)cc1S(=O)(=O)N1CCC(C(=O)NCc2ccco2)CC1,5.93
13,O=C(OCC(=O)N1CCCC1)c1ccccc1OCc1ccccc1,6.29
14,O=C(NCCCN1CCN(c2cccc(Cl)c2)CC1)c1nc(-c2ccncc2)no1,-30.6
15,CC(=O)Nc1cccc(-c2nn[nH]n2)c1,9.69
16,Cc1ccc(NC(=O)CSc2nnc(-c3ccccn3)n2C)cc1,-1
17,O=C(Nc1cccnc1)c1cc([N+](=O)[O-])ccc1Cl,5.62
18,CCC(=O)N1CCN=C1SCc1c(F)cccc1Cl,1.16
19,Cc1ccc(Cn2nc(C)cc2C(=O)Nc2ccc(Cl)cc2)cc1,13.8
20,CN(Cc1cn(C)nc1-c1cccc(Cl)c1)CC1CCCCO1 (stereo not shown),3.38
21,O=C(Nc1nccs1)c1cnccn1,-3.18
22,CCNc1nc(OC)nc(Oc2ccc(=O)n(-c3ccccc3)n2)n1,13.5
23,O=C(COC(=O)c1ccccc1N1C(=O)C2C3CCC(C3)C2C1=O)c1ccccc1 (stereo not shown),7.07

row,Structure (SMILES),"hERG current change (%, negative = inhibition) at 1uM [%]"
1,CCN(CC)CCNCC(O)(c1ccc(Cl)cc1)c1ccc(Cl)cc1,-84.4
2,COc1ccc(Br)cc1CNC(=O)Cc1cccs1,9.25
3,CC(=O)c1c(C)[nH]c(C(=O)COC(=O)CNS(=O)(=O)c2ccccc2)c1C,4.64
4,O=C(Nc1ccc(S(=O)(=O)N2CCOCC2)cc1)c1cccnc1,5.15
5,CCOc1ccc(NC(=O)c2ccc(NC(=O)CN3C(=O)C(=O)N(CC(C)C)C3=O)cc2)cc1,2.45
6,Cc1ccc(-c2nc3ccccc3[nH]2)cc1NC(=O)c1sc2ccccc2c1Cl,12.8
7,Cc1noc(C)c1CSCC(=O)Nc1cc(Cl)ccc1N1CCOCC1,-6.98
8,O=S(=O)(N/N=C\C=C\c1ccccc1)c1ccc(Br)cc1,0.94
9,COc1cc([N+](=O)[O-])ccc1NC(=S)N1CCOCC1,-1.23
10,COc1ccc2[nH]c(C(=O)N(C)c3ccc(F)cc3F)cc2c1,12.5
11,O=C(Nc1ccccc1Cl)C1C(c2ccccc2)C1(Cl)Cl (stereo not shown),13.5
12,COC(=O)c1cn(Cc2ccccc2C)nn1,6.66
13,CCSc1nnc(NC(=O)c2ccco2)s1,8.84
14,CNC(=O)c1oc(-c2ccc(Cl)cc2)nc1C,3.25
15,CC(C)CC(NS(=O)(=O)c1ccc2c(c1)oc(=O)n2C)C(=O)N1CC=C(c2ccccc2)CC1 (stereo not shown),4.42
16,COc1cccc(C2/C(=C(/O)c3cnn(-c4ccccc4)c3C)C(=O)C(=O)N2CCN(C)C)c1OC (stereo not shown),14.3
17,NS(=O)(=O)c1ccc(CCNC(=O)c2ccc(OCC3CCCO3)cc2)cc1 (stereo not shown),11.1
18,c1ccn(-c2ncnc3sc4c(c23)CCCC4)c1,6.23
19,CC1Cc2ccccc2N1C(=O)COc1ccc2c(c1)OCO2 (stereo not shown),13.7
20,O=C(Cn1cnc2cc([N+](=O)[O-])ccc2c1=O)Nc1ccc2c(c1)OCO2,6.93
21,COc1ccc(C(=O)NC(=S)NNC(=O)c2ccncc2)cc1Br,7.59
22,CCCN1C2CCCC1CC(NC(=S)Nc1cccc(C)c1C)C2 (stereo not shown),21.9
23,COc1cc(OC)cc(C(=O)N[C@H](C(=O)Nc2nc3c(s2)CCCC3)C(C)C)c1,14.4

row,Structure (SMILES),"hERG current change (%, negative = inhibition) at 1uM [%]"
1,O=C(O)CCCN=Cc1c(O)c2ccccc2oc1=O,12.8
2,O=C(Nc1ccccc1)c1[nH]ncc1[N+](=O)[O-],-8.36
3,c1ccc2c(c1)C(=NCC1CCCO1)NC2=NCC1CCCO1 (stereo not shown),2.35
4,O=C(CN(Cc1ccc(Cl)cc1)C(=O)CN1C(=O)COc2ccccc21)NC1CCCC1,12
5,CCC(C)c1ccc2oc(-c3ccc(NC(=O)Cn4cnc5c(=O)n(C)c(=O)n(C)c54)cc3)nc2c1 (stereo not shown),14.4
6,Cn1nc(C(=O)NC2CCCCC2)c2ccccc2c1=O,-2.73
7,Cc1nn(C)c(C(=O)Nc2ccc(Br)cc2F)c1Br,14
8,N#CC1(C#N)C(c2ccccc2)OC23CCCCCC2C1(C#N)C(=N)O3 (stereo not shown),-3.8
9,Cc1cc(/C=N/NC(N)=S)c(O)c(/C=N/NC(N)=S)c1,2.66
10,Cc1ccc(C)c(OCCCCn2ccnc2)c1,-6.77
11,O=C(Nc1cccc(-c2cn3ccccc3n2)c1)c1cccs1,7.01
12,O=S(=O)(c1ccccc1)N1CCN(c2cc(-c3ccccc3)nc3ncnn23)CC1,1.46
13,COc1cccc(C(O)c2nc3ccccc3n2C(C)C)c1OC (stereo not shown),10.4
14,Cc1ccc(/C=N/NC(=O)c2cccc(S(=O)(=O)Nc3cccc(Cl)c3)c2)o1,11.6
15,O=c1cccccc1NCc1ccccc1,-2.21
16,COC(=O)c1c(C)oc(C)c1S(=O)(=O)Nc1ccc(C(C)C)cc1,7.58
17,O=C(CN(C(=O)CCC(=O)Nc1nccs1)c1ccc(F)cc1)NCc1ccc(F)cc1,22.5
18,O.[O-][N+]12CCN(CC1)c1ccccc12,18.7
19,CCC(=O)NC(c1cccc([N+](=O)[O-])c1)c1c(OC(C)=O)ccc2ccccc12 (stereo not shown),5.43
20,COc1c(F)c(F)c(C(=O)Nc2c(C)cc(Br)cc2C)c(F)c1F,2.51
21,C/C(=N\Nc1cc(C)nc(-c2ccccc2)n1)c1cccc([N+](=O)[O-])c1,11.1
22,O=C(O)CCN(Cc1ccccc1)S(=O)(=O)c1c(Cl)cccc1Cl,11
23,CCC(C(=O)O/N=C(\N)c1ccc(Cl)cc1)c1ccccc1 (stereo not shown),0.226

row,Structure (SMILES),"hERG current change (%, negative = inhibition) at 1uM [%]"
1,Cc1cccc(OC(C)c2ccnc3nc(/N=C/N(C)C)nn23)c1 (stereo not shown),-2.85
2,O=C(C[N+]12CCC(CC1)C(CO)C2)c1ccc([N+](=O)[O-])cc1.[Br-] (stereo not shown),10.5
3,COc1ccc(C)cc1S(=O)(=O)N(CC(=O)N1CCOCC1)Cc1ccccc1,2.25
4,O=S(=O)(c1ccccc1)c1nc(-c2ccco2)oc1N1CCCCCC1,11.4
5,O=C(COc1ccccc1)N=C1SC2CS(=O)(=O)CC2N1Cc1ccccc1 (stereo not shown),0.629
6,C/C(=N\NC(=O)c1ccc(-c2ccccc2)cc1)c1ccco1,6.21
7,CCOc1ccc(-c2cc(N)n(S(=O)(=O)c3ccc(OC)cc3)n2)cc1,7.59
8,CCOC(=O)N/N=C/c1ccc(N2CCOCC2)s1,-11.1
9,COc1cc(Cl)c(NS(=O)(=O)c2ccc(-c3ccc(=O)[nH]n3)o2)c(OC)c1,10.7
10,O=S(=O)(Nc1nc2ccccc2nc1N1CCN(c2ccccc2F)CC1)c1ccc(Cl)cc1,3.5
11,CCN(CC)c1ccc(NC(=O)CN2C(=O)CC(C)(C)S(=O)(=O)c3ccccc32)c(C)c1,2.99
12,COc1ccc(OC)c(C(=O)CSc2nnc(Cc3cccs3)n2CCc2ccccc2)c1,-6.84
13,O=C(O)c1cc(S(=O)(=O)N2CCCCC2)ccc1F,-6.67
14,CCOC(=O)c1cnc2c(c(C)nn2C)c1Oc1ccccc1F,10.5
15,CC(C)(NO)/C(=N\O)c1ccccc1,7.23
16,COc1cc(C)ccc1S(=O)(=O)N1CCCCCC1,9.29
17,O=C(O)CC1(CC(=O)NCc2cc(F)cc3c2OCOC3)CCCCC1,9.18
18,O=C(CCCOc1ccccc1)N1CCCCC1,0.568
19,CCOc1ccc(NC(=O)CC2C(=O)N(c3ccc(OC)cc3)C(=S)N2Cc2ccccn2)cc1 (stereo not shown),3.74
20,COc1ccc(CNCCc2ccc3c(c2)OCO3)c(OC)c1OC.O=C(O)C(=O)O,11.3
21,CCOc1ccccc1NC(=O)CSc1nc(=O)n(Cc2ccncc2)c2c1CCC2,2.25
22,Cc1nc(-c2ccc(S(=O)(=O)N3CCN(CCc4ccccc4)CC3)s2)cs1,12.9
